Measured values published in PubChem BioAssay AID1347073 (National Center for Advancing Translational Sciences (NCATS), 2019).
The campaign covered roughly 45,000 compounds. About 200 (0.44%) were called active. About 7% were inconclusive and are not listed. Calls come from the whole dose curve; as a rule, active = well fitted activation curve with a large enough effect; inconclusive = small, poorly fitted or top-dose-only effect; inactive = no such curve, though single readings can be large or run the other way. Some of the results follow.

Test: qHTS of TDP-43 Inhibitors: NCGC Sytravon Library Screen; note: 0% is about no effect; nearly all actives have a fitted effect of over 55% in size
Details: yeast TDP-43 toxicity rescue, BacTiter-Glo growth, 24 h; series mostly up to 46.1 µM; growth rescue (activation): at the top concentration
Summary of the method: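 TDP-43-expressing yeast, pregrown in raffinose, seeded at OD600 0.02 in galactose medium with compound for 24 hr at 30 deg C. Growth read by BacTiter-Glo luminescence, so rescue of toxicity appears as activation.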

| Compound | growth rescue (activation) |
| --- | --- |
| O=C(c1ccco1)N1CCCN(Cc2nc(-c3ccc4c(c3)OCO4)no2)CC1 | inactive: 6.52% |
| CCOc1cc(C(=S)N2CCOCC2)ccc1OS(=O)(=O)c1ccc(Br)cc1 | inactive: 8.17% |
| O=C(N1CCCCC1)N1CCN(C(=O)N2CCCCC2)CC1 | inactive: -18.7% |
| COc1ccc(C(CCNCc2ccccc2)c2ccc(F)cc2)cc1 (stereo not drawn) | inactive: 16.2% |
| O=C(NCc1nc2ccccc2[nH]1)c1cccc(S(=O)(=O)N2CCCC2)c1 | inactive: -14.9% |
| CCOC(=O)c1cnc(-n2nc(C)cc2C)nc1Oc1ccc(C#N)cc1 | inactive: -5.45% |
| Cc1cccc(NC(=O)Cn2c(/C=C/c3ccccc3)nc3ccccc32)c1 | inactive: 9.35% |
| CC1(C(=O)NS(=O)(=O)c2ccccc2Cl)CCN1C(=O)Cc1ccccc1Cl (stereo not drawn) | inactive: 9.93% |
| CCOC(=O)c1ccc(N2C(=O)C(CC(=O)NC)N(CCc3ccc(OC)c(OC)c3)C2=S)cc1 (stereo not drawn) | inactive: 21.5% |
| COc1cc2[nH]c(=O)n(CCC(=O)NCCCN3CCN(c4ccccc4F)CC3)c(=O)c2cc1OC | inactive: -4.68% |
| COc1cc(/C=N/N=C(\N)c2nonc2N)cc(OC)c1OC | inactive: -20.4% |
| N/C(=N\OCC(=O)Nc1ccc(F)c(Cl)c1)c1ccccc1 | inactive: 20.6% |
| COc1ccc(C)cc1NC(=O)CCNC(=O)c1ccco1 | inactive: -16.3% |
| Cc1ccc(S(=O)(=O)N(C)c2ccc(OC(=O)c3cccs3)cc2)cc1 | inactive: -28.6% |
| COc1ccc(-c2nc(-c3cccs3)no2)cc1 | inactive: -4.44% |
| O=C(Nc1ccc(C(=O)O)cc1)/C(=C\c1ccccc1)NC(=O)c1ccccc1 | inactive: 4.89% |
| Cc1c(NC(=O)c2cccc(-c3cc4ccccc4oc3=O)c2)cccc1-c1nc2ncccc2o1 | inactive: -10.7% |
| CCN(CC)CCCNC(=O)c1cn(CC(C)C)c(=O)c2c1c1ccccc1n2C | inactive: -1.45% |
| Cc1ccc2nc(-c3ccsc3)c(Nc3ccc(Cl)cc3)n2c1 | inactive: 0.918% |
| CCOc1ccc(C(=O)Cc2cc3cccc(OC)c3oc2=O)cc1 | inactive: 9.64% |
| CCOc1ccc(C(=O)Nc2ccc3c(c2)OCCO3)cc1 | inactive: 23.9% |
| O=C(NC1CCN(Cc2ccccc2)CC1)c1ccccc1NS(=O)(=O)c1ccc(F)cc1 | inactive: 18.8% |
| Nc1nnc(CSCc2ccc(Cl)cc2)s1 | inactive: 16.2% |

| Compound | growth rescue (activation) |
| --- | --- |
| CC(=O)c1cccc(NC(=O)[C@H]2O[C@@H]3OC(C)(C)O[C@@H]3[C@H]3OC(C)(C)O[C@H]32)c1 | inactive: 11.5% |
| O=C(NCc1ccc(Cl)cc1)C(=O)N/N=C/c1ccc(Br)cc1 | inactive: -3.92% |
| COc1ccc(Cc2noc(CN(C)CCc3ccccc3)n2)cc1OC | inactive: 5.57% |
| COc1ccc(OCC(=O)N(Cc2sccc2C)C2CCS(=O)(=O)C2)cc1 (stereo not drawn) | inactive: 6.79% |
| COCCCNC(=O)C(CC(N)=O)NC(=O)OCc1ccccc1 (stereo not drawn) | inactive: 28.7% |
| Cc1ccc(NC(=O)CSc2nnc(-c3ccncc3)n2C)cc1S(=O)(=O)N1CCOCC1 | inactive: -5.83% |
| CCSc1nnc(NC(=O)COc2ccccc2[N+](=O)[O-])s1 | inactive: 3.9% |
| O=C(NC1CC2CCCC(C1)N2C(=O)Nc1ccccc1F)C1CC1 (stereo not drawn) | inactive: -2.59% |
| O=C(COc1ccc(/C=N/NS(=O)(=O)c2ccccc2)cc1)N1CCOCC1 | inactive: -10.4% |
| Cc1[nH]c(=O)[nH]c(=O)c1S(=O)(=O)N(CC(C)C)CC(C)C | inactive: 1.82% |
| S=c1[nH]nc(-c2ccncc2)n1CC1CCCO1 (stereo not drawn) | inactive: -3.06% |
| CN1CCN(S(=O)(=O)c2cccc(C#N)c2)C(c2ccccc2)C1 (stereo not drawn) | inactive: -18.8% |
| COc1ccc(S(=O)(=O)N2CCN(C3CCCCCCC3)CC2)cc1 | inactive: -3.29% |
| O=C(NCC(c1ccco1)N1CCCCC1)c1ccc2c(c1)S(=O)(=O)c1ccccc1C2=O (stereo not drawn) | inactive: 7.04% |
| O=C(Nc1cccc(C(F)(F)F)c1)c1cccnn1 | inactive: 14.1% |
| O=C(N/N=C/c1ccccc1)c1cc[n+]([O-])cc1 | inactive: 12.4% |
| COCCCn1c(SCC(=O)O)nc2cc(OC)c(OC)cc2c1=N | inactive: -7.27% |
| Cc1cccc(-c2noc(CCCC(=O)NC3CCCC3)n2)c1 | inactive: -4.76% |
| CCn1nc(C(=O)NCCc2ccc3c(c2)OCCO3)c2ccccc2c1=O | inactive: 34% |
| CC(NC(=O)Nc1ccc([N+](=O)[O-])cc1)C(c1cccs1)N1CCCC1 (stereo not drawn) | inactive: -11.1% |
| COc1ccc(-c2ccc(-c3noc(-c4ccccc4C)n3)c(OC)n2)cc1 | inactive: 12.8% |
| COc1cccc(C(=O)NCCOc2cc(C)cc(C)c2)c1 | inactive: 28% |
| O=C(CN1C(=O)COc2ccccc21)N1CCN(C2CCCCC2)CC1 | inactive: -0.0463% |

| Compound | growth rescue (activation) |
| --- | --- |
| COc1ccc(N2CCN(C(=O)C3CCN(S(=O)(=O)c4ccc(F)cc4)CC3)CC2)cc1 | inactive: 19.4% |
| O=C(CSc1n[nH]c(-c2cccnc2)n1)Nc1ccc(Cl)cc1 | inactive: 2.19% |
| COc1ccccc1/C=C/C=N/NC(=O)c1cc(-c2ccc(C)o2)[nH]n1 | inactive: 23.6% |
| CCc1ccc(OCC(=O)Nc2ccc3c(c2)OCCO3)cc1 | inactive: 26.6% |
| CC12COC3(C(=O)Nc4ccc(F)cc4)CC1CCC32C (stereo not drawn) | inactive: -6.37% |
| Cc1ccc(S(=O)(=O)N2CCN(CC3CC4C=CC3C4)CC2)cc1 (stereo not drawn) | inactive: 7.37% |
| CC(=O)N1CC2(c3ccccc3)CN(C(C)=O)CC(c3ccccc3)(C1)C2=O | inactive: 1.81% |
| CC(NC(=O)Nc1cccc(Cl)c1)C(c1cccs1)N1CCCC1 (stereo not drawn) | inactive: 8.77% |
| CC1CC(C)CN(CC(=O)NC(c2ccccc2)c2ccccc2)C1 (stereo not drawn) | inactive: -4.23% |
| COc1ccc(N(CC(=O)N/N=C/c2ccc(OC)cc2OC)S(=O)(=O)c2ccccc2)cc1 | inactive: -15.5% |
| CC(=O)Nc1cc(-c2cccc(C(=O)NCCN(C)C)c2)cn2c(-c3ccccc3)cnc12 | inactive: -3.02% |
| Cc1cc(/C=C(/C#N)C(=O)O)c(C)n1CCC(C)C | inactive: 14% |
| CCOc1ccc(C(C(=O)NCCC(C)C)N(CCO)C(=O)c2snc(C(N)=O)c2N)cc1 (stereo not drawn) | inactive: 5.99% |
| Cc1cccc(C)c1NC(=S)N/N=C/c1ccc(C(=O)O)cc1 | inactive: 20.8% |
| COCCNC(=O)CSc1nc2c(n1-c1ccccc1)CCCC2 | inactive: -8.25% |
| O=C(CSc1n[nH]c(-c2ccncc2)n1)c1cccc([N+](=O)[O-])c1 | inactive: -8.91% |
| COc1ccc(S(=O)(=O)N(CC(=O)O)c2ccccn2)cc1 | inactive: 26.3% |
| Cc1ccc2nc(N/C(=N/S(=O)(=O)c3ccc(F)cc3F)c3ccccc3)sc2c1 | inactive: -6.08% |
| CCCC(=O)OCCNc1cc(SCc2ccco2)c2nonc2c1[N+](=O)[O-] | inactive: -15.5% |
| COC(=O)c1c(O)cc(=O)n2c1CCCCC2 | inactive: -0.653% |
| O=C(CSc1nnc(-c2ccc(O)cc2)o1)Nc1cccc(O)c1 | inactive: 11.7% |
| COc1ccc(C(=O)N/N=C/c2c(CO)cnc(C)c2O)cc1 | inactive: -4.84% |
